Source: PubChem BioAssay AID1460 (National Center for Advancing Translational Sciences (NCATS), 2008)
The campaign covered roughly 270,000 compounds. About 5,800 (2.1%) were called active. Inconclusive results, whose numbers are uncertain, are shown with a selection of clear calls. Calls follow the shape of the dose curve; as a rule, active = well fitted inhibition curve with a large enough effect; inconclusive = small, poorly fitted or top-dose-only effect; inactive = flat fitted curve, though single readings scatter. A potency beside an inconclusive call is a rough fit, not a confirmed value.

Biological target: Microtubule-associated protein tau (Homo sapiens) (UniProt P10636)
Test: qHTS for Inhibitors of Tau Fibril Formation, Thioflavin T Binding; also: nearly all actives have a fitted effect of over 55% in size
Conditions: recombinant tau K18 P301L (four-repeat tau fragment), heparin-induced fibrillization, ThT fluorescence; series mostly up to 57.4 µM; activity, negative = inhibition: at the top concentration
Procedure, shortened: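 Aggregation was driven by heparin (20 uM final) acting on recombinant tau […] bearing P301L in 100 mM sodium acetate pH 7; fibrils were detected with Thioflavin T.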
% is scaled to controls: 0 for no effect and ±100 for the full control effect; potency is read from the fitted curve at half-maximal effect; tags tell the direction and shape of the fitted curve.

Sequence of UniProt P10636 (P10636 whole entry, looked up): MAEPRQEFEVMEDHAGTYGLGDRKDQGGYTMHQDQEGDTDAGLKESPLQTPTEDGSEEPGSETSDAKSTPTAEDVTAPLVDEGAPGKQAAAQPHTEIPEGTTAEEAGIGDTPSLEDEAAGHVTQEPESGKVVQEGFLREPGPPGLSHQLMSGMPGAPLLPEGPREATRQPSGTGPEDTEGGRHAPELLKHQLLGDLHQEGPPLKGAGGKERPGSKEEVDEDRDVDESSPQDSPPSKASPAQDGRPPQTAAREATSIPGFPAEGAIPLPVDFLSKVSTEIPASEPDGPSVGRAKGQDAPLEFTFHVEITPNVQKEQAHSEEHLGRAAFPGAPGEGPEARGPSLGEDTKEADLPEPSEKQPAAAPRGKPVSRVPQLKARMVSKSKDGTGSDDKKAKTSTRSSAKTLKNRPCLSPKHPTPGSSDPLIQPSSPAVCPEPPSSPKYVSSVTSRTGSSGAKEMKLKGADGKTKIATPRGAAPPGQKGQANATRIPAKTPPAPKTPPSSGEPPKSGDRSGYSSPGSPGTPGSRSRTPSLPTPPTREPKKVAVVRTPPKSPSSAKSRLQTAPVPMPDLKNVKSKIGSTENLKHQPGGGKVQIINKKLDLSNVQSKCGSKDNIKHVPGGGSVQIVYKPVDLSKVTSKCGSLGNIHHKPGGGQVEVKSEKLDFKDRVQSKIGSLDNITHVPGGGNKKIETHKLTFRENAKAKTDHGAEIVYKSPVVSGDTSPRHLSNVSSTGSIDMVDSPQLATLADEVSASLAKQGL

Question: How did the Potency turn out when `Cc1ccccc1-c1nc2cc(NC(=O)COc3ccc(F)cc3)ccc2o1` was run?
Answer: Its Potency is inconclusive: 0.631 µM [inhibitor, full curve, poor fit].

Question: With `Cc1ccc(N=Cc2cc(Cl)cc(Cl)c2O)nc1` as the compound, how does the Potency read?
Answer: Its Potency is inconclusive: 14.1 µM [inhibitor, partial curve].

Question: Which Potency does the source give for `CCn1c(SCC(=O)NCc2cccs2)nnc1-c1ccco1` here?
Answer: The Potency was inconclusive: 0.562 µM [inhibitor, full curve, poor fit].

Question: How did the Potency turn out when `Cc1ccccc1C(=O)Nc1cccc(C(=O)OCc2cc(=O)n3c4c(sc3n2)CCCC4)c1` was run?
Answer: Its Potency is inconclusive: 25.1 µM [inhibitor, partial curve, poor fit].

Question: For `Cc1ccc(NC(=O)N(Cc2cn(C)c3ccccc23)C2CCCCC2)cc1C`, which Potency is on record?
Answer: The Potency was inconclusive: 10 µM [inhibitor, partial curve].

Question: For `Cc1cc(-c2nn(-c3ccccc3F)cc2CN2CCC(C(N)=O)CC2)c(C)s1`, which “activity, negative = inhibition” value is on record?
Answer: Its value is inactive: -4.58%.

Question: With `CCOc1ccc(-c2cc(OC(=O)c3ccccc3)c3c(C)oc(C)c3c(=O)c2)cc1` as the compound, how does the Potency read?
Answer: The Potency was inconclusive: 10 µM [inhibitor, partial curve].

Question: With `Cc1ccc(-c2csc(N=C(N)N)n2)cc1` as the compound, how does the Potency read?
Answer: Its Potency is inconclusive: 12.6 µM [inhibitor, partial curve, poor fit].

Question: How did the “activity, negative = inhibition” value turn out when `O=C(NCc1ccc(F)cc1)c1cccc2c1C(=O)N(Cc1cccnc1)C2` was run?
Answer: Its value is inactive: -3.17%.

Question: With `Nc1ncc(S(=O)(=O)NCc2ccc(Cl)cc2)cn1` as the compound, how does the “activity, negative = inhibition” value read?
Answer: The value was inactive: 0.419%.

Question: How did the Potency turn out when `Cc1cccc2c(N=Nc3ccc(S(=O)(=O)Nc4cccc(Cl)c4)cc3[N+](=O)[O-])c(O)[nH]c12` was run?
Answer: Its Potency is inconclusive: 4.47 µM [inhibitor, partial curve].

Question: With `COc1cc(/C=C2\C(=O)N(C)C(=S)N2C)ccc1O` as the compound, how does the Potency read?
Answer: The Potency was inconclusive: 15.8 µM [inhibitor, partial curve].

Question: For `COc1ccccc1/C=N/NC(=O)c1cccc(OC(F)(F)C(F)F)c1`, which Potency is on record?
Answer: The Potency was inconclusive: 10 µM [inhibitor, partial curve].

Question: Which Potency does the source give for `COc1ccc(/C=C2\SC(=O)N(CCc3nnc(N)s3)C2=O)cc1` here?
Answer: The Potency was inconclusive: 12.6 µM [inhibitor, partial curve].

Question: Which Potency does the source give for `O=c1oc2ccccc2cc1-c1csc(Nc2nc3c(F)cccc3s2)n1` here?
Answer: The Potency was inconclusive: 1.78 µM [inhibitor, full curve].

Question: Which Potency does the source give for `CCN1C(=O)C(CC(=O)Nc2ccc(OC)cc2)N(CCCN2CCN(c3ccc(OC)cc3)CC2)C1=S` (stereo unspecified) here?
Answer: Its Potency is inconclusive: 14.1 µM [inhibitor, partial curve].

Question: For `Cc1ccccc1CNS(=O)(=O)c1ccc2c(c1)OCCO2`, which “activity, negative = inhibition” value is on record?
Answer: Its value is inactive: 2.68%.

Question: `COCCn1c(C)cc(/C=C2/NC(=O)N(c3ccc(Cl)cc3)C2=O)c1C` was tested. Which Potency did it give?
Answer: The Potency was inconclusive: 28.2 µM [inhibitor, single point].

Question: `Cc1ccc(Nc2nnc(-c3ccc(N4CCOCC4)c([N+](=O)[O-])c3)c3ccccc23)cc1` was tested. Which Potency did it give?
Answer: Its Potency is inconclusive: 10 µM [inhibitor, partial curve].

Question: With `CC#CCN1c2ccccc2[C@]23C[C@@H](C(=O)OC)N(S(=O)(=O)c4cccs4)C2=NC(C(=O)OC)=C(C(=O)OC)[C@H]13` as the compound, how does the activity, negative = inhibition read?
Answer: Its activity, negative = inhibition is inactive: 4.41% [at 11.5 µM].

Question: Which Potency does the source give for `Cc1cccc(-c2noc(-c3cc4ccccc4oc3=O)n2)c1` here?
Answer: Its Potency is inconclusive: 6.31 µM [inhibitor, full curve].

Question: With `COc1cc(C(=O)NNC(=S)Nc2ccc(S(N)(=O)=O)cc2)cc(OC)c1OC` as the compound, how does the “activity, negative = inhibition” value read?
Answer: The value was inactive: -14.1%.

Question: Which Potency does the source give for `Cc1ccc(CNC(=O)CSc2c3c(nc4cc(Cl)ccc24)CCCC3)o1` here?
Answer: Its Potency is inconclusive: 12.6 µM [inhibitor, partial curve].

Question: How did the Potency turn out when `CCn1nc(C)c(/C=N/NC(=O)c2ccc3c(c2)c(C)c(C)n3Cc2ccccc2)c1C` was run?
Answer: The Potency was inconclusive: 22.4 µM [inhibitor, partial curve, poor fit].

Question: With `CCOc1ccc(OCC)c(S(=O)(=O)N2CCN(c3cccc(C)c3C)CC2)c1` as the compound, how does the “activity, negative = inhibition” value read?
Answer: Its value is inactive: -8.53%.

Question: `CC(=O)c1ccc(N2CCN(C(C)C(=O)NC3CCCc4ccccc43)CC2)cc1` (stereo unspecified) was tested. Which Potency did it give?
Answer: The Potency was inconclusive: 35.5 µM [inhibitor, single point].

Question: Which Potency does the source give for `Cc1ccc(Nc2c(-c3ccncc3)nc3ccc(C)cn23)cc1` here?
Answer: Its Potency is inconclusive: 28.2 µM [inhibitor, single point].

Question: For `O=C(Nc1cccnc1)c1ccc(COc2ccccc2Cl)o1`, which “activity, negative = inhibition” value is on record?
Answer: Its value is inactive: -9.02%.

Question: With `Fc1ccc(Nc2ncnc3sc4c(c23)CCC4)cc1F` as the compound, how does the Potency read?
Answer: The Potency was inconclusive: 14.1 µM [inhibitor, partial curve].

Question: With `Nc1ncnc2c1ncn2[C@@H]1O[C@H](COP(=O)(O)OP(=O)(O)OP(=O)(O)OP(=O)(O)OC[C@@H]2O[C@H](n3cnc4c(N)ncnc43)[C@@H](O)[C@H]2O)[C@@H](O)[C@H]1O` as the compound, how does the “activity, negative = inhibition” value read?
Answer: Its value is inactive: -12.4%.

Question: Which Potency does the source give for `COc1ccc(N(CC(=O)NCCc2ccccc2)S(=O)(=O)c2ccccc2)c(OC)c1` here?
Answer: Its Potency is inconclusive: 31.6 µM [inhibitor, single point].

Question: How did the Potency turn out when `CCc1nc(NCCO)c(C#N)c2c1CSC(C)(C)C2` was run?
Answer: The Potency was inconclusive: 20 µM [inhibitor, partial curve].

Question: With `Nc1n[nH]c(N)c1N=Nc1ccc(Cl)cc1Cl` as the compound, how does the Potency read?
Answer: The Potency was active: 3.55 µM.

Question: With `COc1ccccc1OCC(=O)Nc1ccc(CSc2ccccc2)cc1C` as the compound, how does the Potency read?
Answer: The Potency was inconclusive: 7.08 µM [inhibitor, partial curve].

Question: `O=C(Nc1ccccc1Cl)/C(Cl)=C(\Cl)S(=O)c1ccccc1` (stereo unspecified) was tested. Which Potency did it give?
Answer: Its Potency is active: 2.82 µM.

Question: Which “activity, negative = inhibition” value does the source give for `Oc1ccccc1C(=S)N1CCN(c2cccc(Cl)c2)CC1` here?
Answer: The value was inactive: -14.3%.

Question: `COc1cc(SC)ccc1C(=O)Nc1nccs1` was tested. Which Potency did it give?
Answer: The Potency was inconclusive: 44.7 µM [inhibitor, single point].

Question: How did the Potency turn out when `CC(C)(C)C1=NN(c2ccc([N+](=O)[O-])cc2)C(c2ccccc2)C1` (stereo unspecified) was run?
Answer: The Potency was inconclusive: 8.91 µM [inhibitor, partial curve, poor fit].

Question: How did the Potency turn out when `CCCC1=[N+](CC(=O)c2ccc(Br)cc2)CCn2cccc21` was run?
Answer: The Potency was inconclusive: 22.4 µM [inhibitor, partial curve, poor fit].

Question: Which Potency does the source give for `Cc1ccc(-n2[nH]c3c4c(ccc3c2=O)C(=O)c2ccccc2C4=O)cc1` here?
Answer: Its Potency is inconclusive: 2.24 µM [inhibitor, full curve, poor fit].

Question: For `Cc1ccc2nc(NC(=O)c3ccc(NS(=O)(=O)c4cccs4)cc3)sc2c1`, which Potency is on record?
Answer: The Potency was inconclusive: 6.31 µM [activator, partial curve].
